Experimental data published in paper PMC5681660, “Reduced hepatitis B and D viral entry using clinically applied drugs as novel inhibitors of the bile acid transporter NTCP” (Scientific Reports, 2017).
Counter-ions that a name gives are not always drawn.

target: T1, human NTCP (Homo sapiens, UniProt Q14973); assay: Screening taurocholate uptake assay (96-well, [14C]taurocholate, 10 µM drug); conditions: 10 min, read-out: %NTCP activity
T1 sequence (Q14973 1-349): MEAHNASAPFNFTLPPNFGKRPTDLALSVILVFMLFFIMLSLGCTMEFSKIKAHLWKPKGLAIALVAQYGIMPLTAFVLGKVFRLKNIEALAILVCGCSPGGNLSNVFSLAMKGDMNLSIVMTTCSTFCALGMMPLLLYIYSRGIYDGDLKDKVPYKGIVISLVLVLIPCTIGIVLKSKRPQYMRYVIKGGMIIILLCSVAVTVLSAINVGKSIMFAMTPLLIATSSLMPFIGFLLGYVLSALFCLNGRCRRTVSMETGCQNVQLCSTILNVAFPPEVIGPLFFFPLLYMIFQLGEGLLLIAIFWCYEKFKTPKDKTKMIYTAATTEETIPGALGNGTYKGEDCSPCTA

Which remaining activity at 10 µM does the source give for `CCC1(c2ccccc2)C(=O)NCNC1=O` [Primidone] here?
Its remaining activity at 10 µM is 76.2%.

With `CCCCC1(COC(=O)CCC(=O)O)C(=O)N(c2ccccc2)N(c2ccccc2)C1=O` [Suxibuzone] as the compound, how does the remaining activity at 10 µM read?
Its remaining activity at 10 µM is 57.5%.

Which remaining activity at 10 µM does the source give for `CCn1cc(C(=O)O)c(=O)c2cnc(N3CCCC3)nc21` [Piromidic acid] here?
The remaining activity at 10 µM was 120%.

With `O=C(NC(Cc1cc(=O)[nH]c2ccccc12)C(=O)O)c1ccc(Cl)cc1` (stereo not drawn) [Rebamipide] as the compound, how does the remaining activity at 10 µM read?
The remaining activity at 10 µM was 113%.

Which remaining activity at 10 µM does the source give for `CC(CCc1ccccc1)NCC(O)c1ccc(O)c(C(N)=O)c1` (stereo not drawn) [Labetalol hydrochloride] here?
Its remaining activity at 10 µM is 54.1%.

Which remaining activity at 10 µM does the source give for `CC(C)Cn1cnc2c(N)nc3ccccc3c21` [Imiquimod] here?
The remaining activity at 10 µM was 113%.

`O=C1c2c(O)ccc(O)c2C(=O)c2c(NCCNCCO)ccc(NCCNCCO)c21` [Mitoxantrone dihydrochloride] was tested. Which remaining activity at 10 µM did it give?
The remaining activity at 10 µM was 122%.

With `CCCCNc1ccc(C(=O)OCCOCCOCCOCCOCCOCCOCCOCCOCCOC)cc1` [Benzonatate] as the compound, how does the remaining activity at 10 µM read?
The remaining activity at 10 µM was 124%.

How did the remaining activity at 10 µM turn out when `CC(=O)Oc1ccccc1C(=O)Oc1ccccc1C(=O)O` [Acetylsalicylsalicylic acid] was run?
Its remaining activity at 10 µM is 66.3%.

How did the remaining activity at 10 µM turn out when `CCCCOc1cc(C(=O)OCCN(CC)CC)ccc1N` [Benoxinate hydrochloride] was run?
Its remaining activity at 10 µM is 122%.

For `CCCc1nc(C)c2c(=O)[nH]c(-c3cc(S(=O)(=O)N4CCN(CC)CC4)ccc3OCC)nn12` [Vardenafil], which remaining activity at 10 µM is on record?
Its remaining activity at 10 µM is 115%.

Which remaining activity at 10 µM does the source give for `CC1NC(=O)NC1=O` (stereo not drawn) [Methylhydantoin-5-(L)] here?
The remaining activity at 10 µM was 124%.

How did the remaining activity at 10 µM turn out when `CC(C)N(CCC(C(N)=O)(c1ccccc1)c1ccccn1)C(C)C` (stereo not drawn) [Disopyramide] was run?
Its remaining activity at 10 µM is 40.2%.

How did the remaining activity at 10 µM turn out when `O=C(NCCNCC(O)COc1ccc(O)cc1)N1CCOCC1` (stereo not drawn) [Xamoterol hemifumarate] was run?
Its remaining activity at 10 µM is 76.8%.

With `O=C1C(O)=C([C@H]2CC[C@H](c3ccc(Cl)cc3)CC2)C(=O)c2ccccc21` [Atovaquone] as the compound, how does the remaining activity at 10 µM read?
Its remaining activity at 10 µM is 71.3%.

Which remaining activity at 10 µM does the source give for `OCCOCCN1CCN(C(c2ccccc2)c2ccc(Cl)cc2)CC1` (stereo not drawn) [Hydroxyzine dihydrochloride] here?
The remaining activity at 10 µM was 75.7%.

For `CC[N+](C)(C)c1cccc(O)c1` [Edrophonium chloride], which remaining activity at 10 µM is on record?
The remaining activity at 10 µM was 43.8%.

How did the remaining activity at 10 µM turn out when `CCOC(=O)OC(C)OC1=C(C(=O)Nc2ccccn2)N(C)S(=O)(=O)c2ccccc21` (stereo not drawn) [Ampiroxicam] was run?
The remaining activity at 10 µM was 99.6%.

For `COc1cc2ncnc(Nc3ccc(F)c(Cl)c3)c2cc1OCCCN1CCOCC1` [Gefitinib], which remaining activity at 10 µM is on record?
Its remaining activity at 10 µM is 133%.

For `O=C(O)CN(CCN(CC(=O)O)CC(=O)O)CCN(CC(=O)O)CC(=O)O` [Pentetic acid], which remaining activity at 10 µM is on record?
Its remaining activity at 10 µM is 63.6%.

`COc1ccccc1Oc1c(NS(=O)(=O)c2ccc(C(C)(C)C)cc2)nc(-c2ncccn2)nc1OCCO` [Bosentan] was tested. Which remaining activity at 10 µM did it give?
The remaining activity at 10 µM was 86.4%.

For `Cc1ccc(-c2ncc(Cl)cc2-c2ccc(S(C)(=O)=O)cc2)cn1` [Etoricoxib], which remaining activity at 10 µM is on record?
Its remaining activity at 10 µM is 119%.

same assay, conditions: Prestwick library screen, 10 µM drug, [14C]taurocholate uptake

How did the “%NTCP activity” value turn out when `Cl.Nc1c(Br)cc(Br)cc1CNC1CCC(O)CC1` (stereo not drawn) [Ambroxol hydrochloride] was run?
Its value is 49.7759%.

same assay, conditions: Prestwick library screen, [14C]taurocholate uptake, 10 µM drug

With `Cc1nccn1CC1CCc2c(c3ccccc3n2C)C1=O.Cl` (stereo not drawn) [Ondansetron Hydrochloride] as the compound, how does the “%NTCP activity” value read?
Its value is 128.53%.

same assay, conditions: screen, 10 µM drug, [14C]taurocholate uptake

For `Cc1c(N(C)CS(=O)(=O)[O-])c(=O)n(-c2ccccc2)n1C.[Na+]` [Dipyrone], which “%NTCP activity” value is on record?
Its value is 118.042%.

How did the “%NTCP activity” value turn out when `C[C@]12CCC(=O)C=C1CC[C@@H]1[C@@H]2C(=O)C[C@@]2(C)[C@H]1CC[C@]2(O)C(=O)CO` [Cortisone] was run?
The value was 71.1242%.

Which “%NTCP activity” value does the source give for `CC(C(=O)[O-])c1cccc(Oc2ccccc2)c1.CC(C(=O)[O-])c1cccc(Oc2ccccc2)c1.O.O.[Ca+2]` (stereo not drawn) [Fenoprofen calcium salt dihydrate] here?
Its value is 53.0016%.

target: T1, human NTCP; assay: Screening fluorescent competitive Myrcludex B-FITC binding assay (96-well, 10 µM drug); conditions: 0.5 h, read-out: %NTCP binding

`CCC1(c2ccccc2)C(=O)NCNC1=O` [Primidone] was tested. Which remaining activity at 10 µM did it give?
Its remaining activity at 10 µM is 86.3%.

For `CCCCC1(COC(=O)CCC(=O)O)C(=O)N(c2ccccc2)N(c2ccccc2)C1=O` [Suxibuzone], which remaining activity at 10 µM is on record?
The remaining activity at 10 µM was 91.7%.

For `CCn1cc(C(=O)O)c(=O)c2cnc(N3CCCC3)nc21` [Piromidic acid], which remaining activity at 10 µM is on record?
The remaining activity at 10 µM was 91.3%.

With `O=C(NC(Cc1cc(=O)[nH]c2ccccc12)C(=O)O)c1ccc(Cl)cc1` (stereo not drawn) [Rebamipide] as the compound, how does the remaining activity at 10 µM read?
Its remaining activity at 10 µM is 89.7%.

For `CC(CCc1ccccc1)NCC(O)c1ccc(O)c(C(N)=O)c1` (stereo not drawn) [Labetalol hydrochloride], which remaining activity at 10 µM is on record?
Its remaining activity at 10 µM is 82.2%.

How did the remaining activity at 10 µM turn out when `CC(C)Cn1cnc2c(N)nc3ccccc3c21` [Imiquimod] was run?
The remaining activity at 10 µM was 89.5%.

How did the remaining activity at 10 µM turn out when `O=C1c2c(O)ccc(O)c2C(=O)c2c(NCCNCCO)ccc(NCCNCCO)c21` [Mitoxantrone dihydrochloride] was run?
Its remaining activity at 10 µM is 61.3%.

For `CCCCNc1ccc(C(=O)OCCOCCOCCOCCOCCOCCOCCOCCOCCOC)cc1` [Benzonatate], which remaining activity at 10 µM is on record?
Its remaining activity at 10 µM is 119%.

`CCCCOc1cc(C(=O)OCCN(CC)CC)ccc1N` [Benoxinate hydrochloride] was tested. Which remaining activity at 10 µM did it give?
Its remaining activity at 10 µM is 101%.

Which remaining activity at 10 µM does the source give for `CCCc1nc(C)c2c(=O)[nH]c(-c3cc(S(=O)(=O)N4CCN(CC)CC4)ccc3OCC)nn12` [Vardenafil] here?
Its remaining activity at 10 µM is 104%.

For `O=C(NCCNCC(O)COc1ccc(O)cc1)N1CCOCC1` (stereo not drawn) [Xamoterol hemifumarate], which remaining activity at 10 µM is on record?
The remaining activity at 10 µM was 87.1%.

`O=C1C(O)=C([C@H]2CC[C@H](c3ccc(Cl)cc3)CC2)C(=O)c2ccccc21` [Atovaquone] was tested. Which remaining activity at 10 µM did it give?
The remaining activity at 10 µM was 82.6%.

With `OCCOCCN1CCN(C(c2ccccc2)c2ccc(Cl)cc2)CC1` (stereo not drawn) [Hydroxyzine dihydrochloride] as the compound, how does the remaining activity at 10 µM read?
The remaining activity at 10 µM was 81.6%.

Which remaining activity at 10 µM does the source give for `CC[N+](C)(C)c1cccc(O)c1` [Edrophonium chloride] here?
Its remaining activity at 10 µM is 85.7%.

For `CCOC(=O)OC(C)OC1=C(C(=O)Nc2ccccn2)N(C)S(=O)(=O)c2ccccc21` (stereo not drawn) [Ampiroxicam], which remaining activity at 10 µM is on record?
The remaining activity at 10 µM was 56.3%.

How did the remaining activity at 10 µM turn out when `COc1cc2ncnc(Nc3ccc(F)c(Cl)c3)c2cc1OCCCN1CCOCC1` [Gefitinib] was run?
Its remaining activity at 10 µM is 74.1%.

For `O=C(O)CN(CCN(CC(=O)O)CC(=O)O)CCN(CC(=O)O)CC(=O)O` [Pentetic acid], which remaining activity at 10 µM is on record?
Its remaining activity at 10 µM is 87.9%.

How did the remaining activity at 10 µM turn out when `COc1ccccc1Oc1c(NS(=O)(=O)c2ccc(C(C)(C)C)cc2)nc(-c2ncccn2)nc1OCCO` [Bosentan] was run?
Its remaining activity at 10 µM is 105%.

With `Cc1ccc(-c2ncc(Cl)cc2-c2ccc(S(C)(=O)=O)cc2)cn1` [Etoricoxib] as the compound, how does the remaining activity at 10 µM read?
Its remaining activity at 10 µM is 72.2%.

same assay, conditions: 0.5 h, read-out: %NTCP binding, Prestwick library screen, 10 µM drug, Myrcludex B-FITC binding

Which remaining activity at 10 µM does the source give for `CC(C)N(CCC(C(N)=O)(c1ccccc1)c1ccccn1)C(C)C` (stereo not drawn) [Disopyramide] here?
Its remaining activity at 10 µM is 75%.

same assay, conditions: 0.5 h, read-out: %NTCP binding, Prestwick library screen, Myrcludex B-FITC binding, 10 µM drug

Which remaining activity at 10 µM does the source give for `CC(=O)Oc1ccccc1C(=O)Oc1ccccc1C(=O)O` [Acetylsalicylsalicylic acid] here?
Its remaining activity at 10 µM is 90.7%.

Which remaining activity at 10 µM does the source give for `CC1NC(=O)NC1=O` (stereo not drawn) [Methylhydantoin-5-(L)] here?
Its remaining activity at 10 µM is 88.2%.

same assay, conditions: Prestwick library screen, 10 µM drug, Myrcludex B-FITC binding

For `Cl.Nc1c(Br)cc(Br)cc1CNC1CCC(O)CC1` (stereo not drawn) [Ambroxol hydrochloride], which “%NTCP binding” value is on record?
Its value is 48.8388%.

same assay, conditions: Prestwick library screen, Myrcludex B-FITC binding, 10 µM drug

With `Cc1nccn1CC1CCc2c(c3ccccc3n2C)C1=O.Cl` (stereo not drawn) [Ondansetron Hydrochloride] as the compound, how does the “%NTCP binding” value read?
Its value is 71.5151%.

same assay, conditions: screen, 10 µM drug, Myrcludex B-FITC binding

How did the “%NTCP binding” value turn out when `Cc1c(N(C)CS(=O)(=O)[O-])c(=O)n(-c2ccccc2)n1C.[Na+]` [Dipyrone] was run?
Its value is 64.6399%.

With `C[C@]12CCC(=O)C=C1CC[C@@H]1[C@@H]2C(=O)C[C@@]2(C)[C@H]1CC[C@]2(O)C(=O)CO` [Cortisone] as the compound, how does the “%NTCP binding” value read?
Its value is 87.1881%.

How did the “%NTCP binding” value turn out when `CC(C(=O)[O-])c1cccc(Oc2ccccc2)c1.CC(C(=O)[O-])c1cccc(Oc2ccccc2)c1.O.O.[Ca+2]` (stereo not drawn) [Fenoprofen calcium salt dihydrate] was run?
The value was 88.2286%.
